Results published in PubChem BioAssay (NCATS).
This list was built around the results that the source calls inconclusive (neither active nor inactive); the mix of calls is not that of the screen. Potencies of inconclusive entries are doubtful fits and often do not repeat. Active and inactive are the calls of the source. Unless noted, the call rests on the fitted dose curve; in most records, active means well fitted curve in the direction sought with a large enough effect; inconclusive means small, poorly fitted or top-dose-only effect, or another doubt; inactive means no such curve, though single readings can be large; an effect the other way counts as inactive or inconclusive.

How the values were obtained:
[1] = molecular target: Aldehyde dehydrogenase, mitochondrial (Homo sapiens) (UniProt P05091); test: qHTS for Inhibitors of the Aldehyde Dehydrogenase Family (ALDH2) Confirmatory screens (AID 2061303; active means well fitted inhibition curve with a large enough effect; inconclusive means small, poorly fitted or top-dose-only effect; inactive means no such curve, though single readings can be large or run the other way; title and protocol of this record describe different tests; further: nearly all actives have a fitted effect of over 45% in size); details: ALDH inhibition qHTS; activity change, negative = inhibition: at 45.4 µM (top of the series)
[2] = qHTS for Inhibitors of the Aldehyde Dehydrogenase Family (ALDH1A2, ALDH1A3, ALDH2, ALDH3A1) (AID 2061307); details: ALDH inhibition qHTS; activity change, negative = inhibition: at 50.3 µM (top of the series) unless noted; further: nearly all actives have a fitted effect of over 50% in size; on Potency: test system not described further here
[3] = molecular target: Aldehyde dehydrogenase, mitochondrial (Homo sapiens) (UniProt P05091); test: qHTS for Inhibitors of the Aldehyde Dehydrogenase Family (ALDH2) Primary screen (AID 2061308); details: ALDH2 enzyme inhibition qHTS, 1536-well; series mostly up to 56 µM; further: nearly all actives have a fitted effect of over 55% in size
[4] = molecular target: Retinaldehyde dehydrogenase 3 (Homo sapiens) (UniProt P47895); test: qHTS for Inhibitors of the Aldehyde Dehydrogenase Family (ALDH1A3) Confirmatory screens (AID 2061311); details: ALDH inhibition qHTS; activity change, negative = inhibition: at 46 µM (top of the series); series mostly up to 46 µM; further: nearly all actives have a fitted effect of over 60% in size
[5] = molecular target: Retinal dehydrogenase 2 (Homo sapiens) (UniProt O94788); test: qHTS for Inhibitors of the Aldehyde Dehydrogenase Family (ALDH1A2) Confirmation screens (AID 2061314); details: ALDH1A2 enzyme inhibition qHTS confirmation; series mostly up to 45.9 µM; further: nearly all actives have a fitted effect of over 65% in size
[6] = molecular target: Aldehyde dehydrogenase 1A1 (Homo sapiens) (UniProt P00352); test: qHTS for Inhibitors of the Aldehyde Dehydrogenase Family (ALDH1A1) Confirmatory screens (AID 2061316); details: ALDH inhibition qHTS; activity change, negative = inhibition: at 47.3 µM (top of the series); series mostly up to 47.3 µM; further: nearly all actives have a fitted effect of over 65% in size
Potency means the concentration at half of the fitted maximal effect; tags describe the fitted curve by direction and shape.

| Structure (SMILES) | Potency [1] | Potency [2] | Potency [3] | Potency [4] | Potency [5] | Potency [6] |
| --- | --- | --- | --- | --- | --- | --- |
| O=C(CCC#CCSc1nnc(-c2cccc3ccccc23)o1)c1ccccc1 | active: 20.1 µM | inconclusive: 28.3 µM [inhibitor, partial curve, poor fit] | inconclusive: 22.4 µM [inhibitor, single point] | inconclusive: 14.2 µM [inhibitor, partial curve] | inconclusive: 12.7 µM [inhibitor, partial curve] | inconclusive: 20.1 µM [inhibitor, partial curve] |
| Cc1noc(Nc2sc3c(c2-c2nc4ccccc4s2)CCNC3)n1 | inconclusive: 10.1 µM [inhibitor, partial curve] | inconclusive: 7.98 µM [inhibitor, full curve] | inconclusive: 8.91 µM [inhibitor, partial curve, poor fit] | inconclusive: 28.2 µM [inhibitor, partial curve, poor fit] | active: 25.2 µM | inconclusive: 7.12 µM [inhibitor, partial curve] |
| CCn1cnc2c(Nc3ccc(Cc4cccnc4)cc3)nc(C#N)nc21 | inconclusive: 14.1 µM [inhibitor, full curve, poor fit] | inconclusive: 12.6 µM [inhibitor, full curve, poor fit] | inconclusive: 3.55 µM [inhibitor, full curve] | inconclusive: 35.5 µM [inhibitor, partial curve] | inconclusive: 12.7 µM [inhibitor, partial curve] | inconclusive: 20.1 µM [inhibitor, partial curve, poor fit] |
| Cc1ccc(CNc2ncnc3ccc(-c4ccc(CO)o4)cc23)o1 | inconclusive: 4.49 µM [inhibitor, partial curve] | inconclusive: 11.3 µM [inhibitor, partial curve] | inconclusive: 11.2 µM [inhibitor, partial curve] | inconclusive: 11.3 µM [inhibitor, partial curve] | inactive | active: 4 µM |
| CN(CC(=O)Nc1ccc(N2CCOCC2)cc1)Cc1ccccc1O | inconclusive: 11.3 µM [inhibitor, partial curve] | inconclusive: 14.2 µM [inhibitor, partial curve] | inactive | inconclusive: 25.2 µM [inhibitor, partial curve] | inconclusive: 11.3 µM [inhibitor, partial curve] | inconclusive: 15.9 µM [inhibitor, partial curve] |
| CC(C)c1ccc2c(c1)CCC1[C@](C)(C(=O)O)CCC[C@]21C (some centres not stated) | inconclusive: 14.2 µM [inhibitor, partial curve, poor fit] | inactive | inconclusive: 22.4 µM [inhibitor, partial curve] | inactive | inconclusive: 22.5 µM [inhibitor, partial curve, poor fit] | inactive |
| N#Cc1c(-c2ccc3c(c2)OCO3)no[n+]1[O-] | inactive | active: 1.13 µM | inconclusive: 5.01 µM [inhibitor, partial curve] | inactive | active: 10.1 µM | inactive |
| CC(C)N1CCc2c(sc(NC(=O)Cc3ccccc3)c2-c2nc3ccccc3s2)C1 | inactive | inconclusive: 7.12 µM [inhibitor, partial curve] | inconclusive: 10 µM [inhibitor, partial curve] | inactive | inconclusive: 5.65 µM [inhibitor, full curve] | inactive |
| O=C1Cc2cc(S(=O)(=O)N3CCN(c4ccc(Cl)cc4)CC3)ccc2N1 | inconclusive: 25.9 µM [inhibitor, partial curve, poor fit] | inactive | inconclusive: 14.1 µM [inhibitor, full curve] | inactive | inconclusive: 32.6 µM [inhibitor, partial curve] | inconclusive: 32.6 µM [inhibitor, partial curve] |
| C/C=C/C=C/C(CC(=O)O)Nc1ccc(C=O)cc1 (configuration not stated) | inconclusive: 14.2 µM [inhibitor, partial curve] | inconclusive: 11.3 µM [inhibitor, partial curve] | inconclusive: 25.1 µM [inhibitor, partial curve] | active: 12.7 µM | inconclusive: 11.3 µM [inhibitor, partial curve] | active: 2.01 µM |
| CC(C)(C)OC(=O)N1CCN(c2ccc(NCc3ccc(-c4cccc([N+](=O)[O-])c4)o3)cc2)CC1 | active: 0.896 µM | active: 4 µM | inconclusive: 1.26 µM [inhibitor, full curve, poor fit] | inactive | inconclusive: 2.52 µM [inhibitor, full curve] | active: 14.2 µM |
| O=C1Cc2cc(S(=O)(=O)N3CCN(c4ccc(Br)cc4)CC3)ccc2N1 | inconclusive: 25.9 µM [inhibitor, partial curve] | inconclusive: 29.1 µM [inhibitor, partial curve] | inconclusive: 17.8 µM [inhibitor, partial curve] | inactive | active: 20.6 µM | inconclusive: 25.9 µM [inhibitor, partial curve] |
